In all, about 45,000 compounds went through this assay and about 65 (0.1%) were called active. The call rests on the fitted dose curve; in most records, active means well fitted activation curve with a large enough effect; inconclusive means small, poorly fitted or top-dose-only effect; inactive means no such curve, though single readings can be large or run the other way. The list shows a part of the results.
target: Galactocerebrosidase (Homo sapiens) (UniProt P54803); assay: A Novel Cell-Based Assay to Identify Small Molecules for B -Galactocerebrosidase; conditions: 145M-Twi-hGALC-G270D cells (Twitcher mouse brain line with human GALC G270D), HMU-beta-Gal fluorescence, 48 h; series mostly up to 57.5 µM; activation: at the top concentration; further: 0% is about no effect; nearly all actives have a fitted effect of over 65% in size
UniProt P54803, sequence (P54803 whole entry, looked up): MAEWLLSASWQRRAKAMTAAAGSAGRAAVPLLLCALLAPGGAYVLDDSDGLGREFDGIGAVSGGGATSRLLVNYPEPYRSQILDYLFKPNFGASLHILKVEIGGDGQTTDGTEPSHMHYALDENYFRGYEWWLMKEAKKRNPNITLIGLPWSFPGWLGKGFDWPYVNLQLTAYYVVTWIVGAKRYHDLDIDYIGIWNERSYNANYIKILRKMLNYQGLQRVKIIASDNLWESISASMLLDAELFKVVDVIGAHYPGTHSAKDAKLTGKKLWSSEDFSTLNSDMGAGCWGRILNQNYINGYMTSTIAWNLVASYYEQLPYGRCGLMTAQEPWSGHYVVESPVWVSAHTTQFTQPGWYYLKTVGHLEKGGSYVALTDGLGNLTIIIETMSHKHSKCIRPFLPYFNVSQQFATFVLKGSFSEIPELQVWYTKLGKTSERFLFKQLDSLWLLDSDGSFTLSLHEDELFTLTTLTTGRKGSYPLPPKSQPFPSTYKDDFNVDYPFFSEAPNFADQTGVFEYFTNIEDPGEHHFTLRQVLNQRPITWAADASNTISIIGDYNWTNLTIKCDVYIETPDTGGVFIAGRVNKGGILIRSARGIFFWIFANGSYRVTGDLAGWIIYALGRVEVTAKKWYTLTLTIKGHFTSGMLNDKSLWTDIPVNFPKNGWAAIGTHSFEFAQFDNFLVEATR
Summary of the method: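 Fluorogenic HMU-b-Gal hydrolysis (0.1 mM final, pH 5.2 citrate-phosphate with 1 mg/mL sodium taurocholate; carbonate stop buffer) measures mutant GALC activity after compound treatment of live 145M-Twi Twitcher brain cells stably carrying human GALC-G270D, with wild-type GALC line alongside; activation sought.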

| SMILES | activation |
| --- | --- |
| CCOc1ccc(-c2nc3ccccc3c(=O)o2)cc1 | inactive: -14.9% |
| CCOC(=O)c1cccc(NC(=O)[C@H](CSCc2ccccc2)N2Cc3ccccc3C2=O)c1 | inactive: -4.54% |
| Cc1ccc(Nc2cc(C)nc3nncn23)c(C)c1 | inactive: -11.2% |
| CCOC(=O)c1c(NC(=O)c2ccc(F)cc2)sc2c1CCC(CC)C2 (stereo not drawn) | inactive: -10.3% |
| CN1C(=O)c2[nH]nc(-c3ccc(F)cc3)c2C1c1cccc(O)c1 (stereo not drawn) | inactive: -0.618% |
| CC(C)CCn1c(SCc2cccc(F)c2)nc2ccsc2c1=O | inactive: 2.02% |
| Cc1cc(C)cc(Nc2nc3cc(Cl)c(Cl)cc3nc2-n2nc(C)cc2C)c1 | inactive: -9.16% |
| Cn1cc(-c2cc3n(n2)CCC(=O)N3CCCC(=O)NCc2ccccc2Cl)c2ccccc21 | inactive: -6.2% |
| COc1ccc2c(c1)-c1nc(NC(=O)c3cc(OC)c(OC)c(OC)c3)sc1CC2 | inactive: -19.9% |
| CN1C(=O)C2(c3ccccc31)N(c1ccc(Br)cc1)C(=O)CS2(=O)=O (stereo not drawn) | inactive: -21.3% |
| O=C(C1CCC(Cn2c(=O)c3sccc3n(Cc3ccc(F)cc3)c2=O)CC1)N1CCOCC1 (stereo not drawn) | inactive: -7.14% |
| O=c1[nH]c(C2CCCN(S(=O)(=O)c3ccccc3)C2)nc2c1nnn2Cc1ccc(OC(F)(F)F)cc1 (stereo not drawn) | inactive: -1.92% |
| CCc1ccc2oc(C(=O)NCc3ccccc3)cc(=O)c2c1 | inactive: -31.9% |
| Cc1cc(C)cc(C(=O)N2CC(=O)Nc3ccc(Br)cc3C2c2ccccc2)c1 (stereo not drawn) | inactive: -25.4% |
| CCCCOc1ccc(C2C(=O)N(C3CCCCC3)CC(=O)N2CCCC)cc1 (stereo not drawn) | inactive: -10.7% |
| Cc1ccc(NC(=O)Cn2c(-c3nonc3N)nc3ccccc32)c(Br)c1 | inactive: 3.16% |
| CCOC(=O)c1noc2ncn(CC(=O)Nc3ccccc3OC)c(=O)c12 | inactive: -3.7% |
| COc1cccc(CNC(=O)CCc2c(C)c3ccc(O)c(C)c3oc2=O)c1 | inactive: -33.7% |
| CCCCN(CC)CCCNC(=O)c1ccc2c(c1)NC(=O)CN2C | inactive: -9.33% |
| Cc1ccc(-n2ncc(C(=O)NCCCN3CCc4ccccc4C3)c2C2CCN(C(=O)OC(C)(C)C)CC2)c(C)c1 | inactive: -5.64% |
| COc1ccc(-n2c(SCc3ccccc3)nc3c([nH]c4ccccc43)c2=O)cc1 | inactive: -1.89% |
| COc1cccc(CNC(=O)Cn2nc(N3CCN(c4ccccc4OC)CC3)ccc2=O)c1 | inactive: 1.52% |
| CCOc1ccc(-n2c(=O)c3c(C)c(C)sc3n(Cc3ccccc3C)c2=O)cc1 | inactive: -8.5% |
| COc1ccc(C)cc1NC(=O)CN1C(=O)COc2ccc(S(=O)(=O)N3CCC(C)CC3)cc21 | inactive: -11.9% |
| Cc1c(Cl)cccc1NC(=O)C(C)n1c(=O)cc(C)c2c(C)nn(-c3ccccc3)c21 (stereo not drawn) | inactive: -7.17% |

| SMILES | activation |
| --- | --- |
| Cc1nc2nc(SCC(=O)Nc3ccccc3Cl)nn2c(C)c1Cc1ccccc1 | inactive: 3.7% |
| CN(C)CCCNC(=O)C(=O)NCC(c1ccc2c(c1)OCO2)N1CCOCC1 (stereo not drawn) | inactive: -8.48% |
| COc1cc2c(cc1OC)C(COc1ccc(F)cc1)N(C(=O)c1cccc(F)c1)CC2 (stereo not drawn) | inactive: -13.3% |
| CN1CCN(C(=O)Cn2ncc3c4ccccc4n(Cc4ccc(F)cc4)c3c2=O)CC1 | inactive: -16.3% |
| O=C(c1ccc(Br)cc1)N(Cc1cccs1)c1ccc(F)cc1 | inactive: -6.74% |
| COc1cc(OC)c(NC(=O)c2cn(C3CCCC3)c(=O)c3c2c2ccccc2n3C)cc1Cl | inactive: -10.8% |
| COc1ccc(-c2cnc(C)o2)cc1S(=O)(=O)Nc1ccc(F)cc1F | inactive: -19.9% |
| Cc1cc(C)c(S(=O)(=O)Nc2ccc3oc4c(c3c2)C(=O)CC(C)(C)C4)cc1C | inactive: -44.6% |
| Cc1noc(/C=C/c2cccs2)c1S(=O)(=O)N1CCC(C(=O)NCc2ccc(Cl)cc2)CC1 | inactive: -11.9% |
| COc1cccc(C(=O)Nc2ccccc2OCc2cc(=O)n3ccccc3n2)c1 | inactive: -5.16% |
| Cc1cccn2c(=O)c(/C=C(\C#N)c3nc4ccccc4s3)c(Oc3ccc(F)cc3)nc12 | inactive: -23.9% |
| Cc1cc(N(CCO)Cc2ccccc2)n2nc(-c3ccc(C(C)(C)C)cc3)nc2n1 | inactive: -6.66% |
| CCOCCn1ccc2c(OCC(=O)Nc3cccc([N+](=O)[O-])c3)cccc2c1=O | inactive: -19.7% |
| COc1ccc(N(Cc2nnc3n2CCCCC3)C(=O)Nc2cccc(C)c2)cc1Cl | inactive: 4.84% |
| COc1ccccc1CN1CCNC(=O)C1=O | inactive: -11.4% |
| O=C(Cn1ncc2c3ccccc3n(Cc3ccccc3)c2c1=O)NC1CCCCCC1 | inactive: -13.5% |
| CCOc1ccc(CN2CCc3nc(N4CCN(c5ccccn5)CC4)ncc3C2)cc1OC | inactive: -7.15% |
| COc1ccc(NC(=O)C(CC(C)C)NC(=O)C2CCCCC2)cc1 (stereo not drawn) | inactive: -13.1% |
| COc1ccccc1NC(=O)Cn1c(=O)n(-c2cccc(C)c2)c(=O)c2c1c1cc(C)ccc1n2C | inactive: -0.828% |
| COc1ccc(-c2coc3c2c(C)cc2oc(=O)c(CC(=O)O)c(C)c23)cc1 | inactive: -21.5% |
| Cn1c(=O)c2cc(C(=O)NC3CCCCCC3)sc2c2ccccc21 | inactive: 2.14% |
| CCn1c(=N)n(CC(O)COc2ccccc2)c2ccccc21 (stereo not drawn) | inactive: -6.81% |
| CCCc1cnc2c(c1SCc1cccc(F)c1)c(=O)n(C)c(=O)n2C | inactive: -14.5% |
| CCCc1noc(-c2ccc(NCc3ccc(C)cc3)c([N+](=O)[O-])c2)n1 | inactive: -15.7% |
| Cc1ccc(NC(=O)Cn2c(=O)n(Cc3ccc4c(c3)OCO4)c(=O)c3ccccc32)cc1 | inactive: -9.5% |

| SMILES | activation |
| --- | --- |
| COc1ccc(-c2cn3c(n2)sc2cc(C(=O)NCc4cccc(F)c4)ccc23)cc1 | inactive: -14.7% |
| Cc1ccc(C(=O)c2cn(Cc3ccccc3C)c3nc(C)ccc3c2=O)cc1 | inactive: -13.3% |
| Cc1ccccc1-c1cc2nccc(-c3cc(Cl)ccc3O)n2n1 | inactive: -19.1% |
| Cc1ccc(NC(=O)CN2C(=O)COc3ccc(S(=O)(=O)NC4CCCC4)cc32)c(Cl)c1 | inactive: -3.47% |
| Cc1nc(C)c(CCNS(=O)(=O)c2ccc(F)cc2)s1 | inactive: -31.3% |
| CCCCNC(=O)CSc1nc2cc3c(cc2c(=O)n1CCCCCC(=O)NCc1ccc(OC)cc1)OCO3 | inactive: -10.2% |
| CCc1ccc(Nc2nnc(-n3nc(C)cc3C)c3ccccc23)cc1 | inactive: -20.1% |
| COc1ccc(CNC(=O)c2cnc3sc(N4CCCC4)nn3c2=O)c(OC)c1 | inactive: -9.2% |
| COc1ccc(N(Cc2cccs2)C(=O)Nc2cccc(Cl)c2)cc1 | inactive: -1.58% |
| CCOC(=O)C1CCCN(S(=O)(=O)c2ccc3c(c2)oc(=O)n3C)C1 (stereo not drawn) | inactive: -1.37% |
| COc1ccc(C2CC(=O)N(CC(=O)Nc3ccc(C)c(Cl)c3)c3ccccc3S2)cc1OC (stereo not drawn) | inactive: -2.24% |
| COc1ccc(-c2nc(SCC(=O)NC3CCCC3)c(-c3ccc(C)cc3)[nH]2)cc1OC | inactive: -42.5% |
| CCOc1ccc(NC(=O)C(=O)NCC(c2cccnc2)N2CCc3ccccc32)cc1 (stereo not drawn) | inactive: -15.5% |
| COc1cccc(NC(=O)CCc2c(C)nc3ncnn3c2C)c1 | inactive: -16.5% |
| Cc1ccccc1NC(=O)CCN1C(=O)c2ccccc2Sc2ncccc21 | inactive: -1.55% |
| Cc1ccccc1C(=O)NCCc1sc(-c2ccc(Cl)cc2)nc1C | inactive: -13.9% |
| COc1ccc(CNC(=O)Cc2csc3nc(-c4ccc(F)cc4)cn23)cc1 | inactive: -17.3% |
| O=C1C(c2ccc(C(F)(F)F)cc2)=C(Nc2ccc(Cl)cc2)c2ccccc21 | inactive: -14.9% |
| Cc1nnsc1C(=O)Oc1ccccc1Cl | inactive: -13.9% |
| Cc1cccc(-c2cc(NC(=O)COc3ccccc3F)n(-c3ccccc3)n2)c1 | inactive: -15% |
| Cc1ccc(-n2c(=O)c3sccc3n(Cc3cc(=O)n4ccccc4n3)c2=O)cc1 | inactive: -15.1% |
| COc1ccc(C(=O)N2CCC(C(=O)Nc3ccc(OC)cc3OC)CC2)cc1 | inactive: -16.6% |
| CCN(C(=O)Cn1nc(Cc2cccnc2)c2ccccc2c1=O)c1cc(C)ccc1C | inactive: -15.3% |
| Cc1ccccc1C(=O)Nc1nnc(S(=O)(=O)N2CCCc3ccccc32)s1 | inactive: -13.5% |
| CCN(CC)CCOC(=O)c1ccc(NC(=O)CCn2c(=O)oc3ccccc32)cc1 | inactive: -2.86% |

| SMILES | activation |
| --- | --- |
| Cc1ccc(-c2cn3c4c(=O)n(C)c(=O)n(C)c4nc3n2-c2cccc(Cl)c2)cc1 | inactive: -26.3% |
| CSc1ccccc1NC(=O)CCS(=O)(=O)c1nc(-c2cccs2)cc(C(F)(F)F)n1 | inactive: -13% |
| Cc1ccc(NC(=O)CSc2nnc(-c3cc4occc4n3C)n2-c2ccccc2C)cc1F | inactive: -8.58% |
| COc1ccc(C(=O)N=c2sc3cc(Cl)ccc3n2C)cc1 | inactive: 0.116% |
| CCn1c(C(=O)Nc2cc(C)cc(C)c2)cc2sc(Cl)cc21 | inactive: 1.34% |
| CCCCN(C)c1ncnc2c1cnn2-c1cccc(Cl)c1 | inactive: -3.44% |
| CN1[C@@H]2CC[C@H]1CC(OC(=O)c1c[nH]c3ccccc13)C2 (stereo partly drawn) | inactive: -18.1% |
| N#Cc1ccccc1NC(=O)C(=O)NCC(c1cccnc1)N1CCc2ccccc2C1 (stereo not drawn) | inactive: -20% |
| COc1ccc(N(CC(=O)Nc2ccc(Cl)cc2C)S(=O)(=O)c2ccccc2)c(OC)c1 | inactive: -19.5% |
| COc1cc(-c2nnc(SCC(=O)N3CCCc4ccccc43)o2)cc(OC)c1OC | inactive: -7.94% |
| O=C(NCc1ccccc1Br)c1ccc(-n2cnc3cccnc32)cc1 | inactive: -0.431% |
| CCc1ccc(S(=O)(=O)c2nnn3c2nc(Nc2cccc(C)c2C)c2sccc23)cc1 | inactive: -10.7% |
| CCC(=O)N1CCc2cc(S(=O)(=O)NCCC(=O)Nc3cccc(C)c3C)ccc21 | inactive: -18.5% |
| COc1cccc(CNc2ccc3c(c2)ncn3C)c1OC | inactive: -21.9% |
| Cc1cc(SCC(=O)NCc2ccccc2)nc(=O)[nH]1 | inactive: -12.4% |
| CCOc1ccccc1NC(=O)C1CCCN(S(=O)(=O)c2ccc3c(c2)CCCN3C(C)=O)C1 (stereo not drawn) | inactive: -18.6% |
| COc1ccc(OC)c(CCNC(=O)C(C)n2nc(C)c3c(C)n(-c4ccc(C)cc4)nc3c2=O)c1 (stereo not drawn) | inactive: -12.7% |
| Cc1ccc(Cl)cc1N1CCN(C(=O)Cn2nc(C)n3c(cc4sccc43)c2=O)CC1 | inactive: -46.9% |
| CCOC(=O)c1c(-c2ccccc2)csc1NC(=O)c1cc(-c2cccc(OC)c2)on1 | inactive: 2.11% |
| Cc1cc(C)cc(C(=O)Nc2c3c(nn2-c2ccccc2C)CS(=O)(=O)C3)c1 | inactive: -25.3% |
| CCCN(C(=O)CCn1cnc2onc(-c3ccc(F)cc3)c2c1=O)c1ccccc1C | inactive: 6.61% |
| O=C(CN1C(=O)COc2ccc(S(=O)(=O)N3CCCCCC3)cc21)N1CCN(c2ccccc2)CC1 | inactive: -12.7% |
| Cc1cc(C)cc(NC(=O)Cn2nnc(C(=O)NCc3ccco3)c2N)c1 | inactive: -16.6% |
